Measurements: the supplement of paper PMC12217912
The other results are listed elsewhere or left out. Sequences were assembled here from the parent chain. Values near 0.05 are background.

B1: TEV protease; numbered along this chain (parent)
chain: MGESLFKGPRDYNPISSSICHLTNESDGHTTSLYGIGFGPFIITNKHLFRRNNGTLVVQSLHGVFKVKDTTTLQQHLVDGRDMIIIRMPKDFPPFPQKLKFREPQREERICLVTTNFQTKSMSSMVSDTSCTFPSGDGIFWKHWIQTKDGQCGSPLVSTRDGFIVGIHSASNFTNTNNYFTSVPKNFMELLTNQEAQQWVSGWRLNADSVLWGGHKVFMVKPEEPFQPVKEATQL

Variants of: B1
Assay: raw area under fraction-flipped curve 0-4 h after induction (AUC4h, not background-subtracted), DNA-recorder readout of cleavage of the substrate (dimensionless); higher = more cleavage of the substrate by the protease variant
Settings: temperature: 34 °C; time window: 0-4 h after rhamnose induction
Description: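 In vivo DNA recorder in E. coli TOP10(DE3) ΔrhaA at 34 °C. Each TEVp single-site mutant (parent TEVp 0) is paired with a single-site variant of the 7-mer TEVs (canonical ENLYFQ|S). The substrate sits between flexible linkers in a Bxb1-sfGFP-TEVs-SsrA fusion, so cleavage stabilises Bxb1 and speeds flipping of a recombination array, read by NGS. The value is the raw area under the fraction-flipped curve over 0-4 h after rhamnose induction (AUC4h), with ≥20 reads per time point. It is not background-subtracted; inactive controls average about 0.047.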
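Also: Bxb1 expression induced with 0.2% (w/v) L-rhamnose at OD600 near 0.5, cultures sampled hourly, flipped fraction per protease–substrate barcode pair counted by paired-end Illumina sequencing.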

| Variant | area with substrate ENLYEQS | area with substrate ENLYHQS | area with substrate ENLYMQS | area with substrate ENLYNQS | area with substrate ENLYPQS | area with substrate ENLYQQS | area with substrate ENLYGQS | area with substrate ENLYIQS | area with substrate ENLYLQS | area with substrate ENLYRQS | area with substrate ENLYDQS | area with substrate ENLYSQS | area with substrate ENLYVQS | area with substrate ENLYWQS | area with substrate ENLYYQS | area with substrate ENLYKQS | area with substrate ENLYTQS |
| --- | --- | --- | --- | --- | --- | --- | --- | --- | --- | --- | --- | --- | --- | --- | --- | --- | --- |
| F187C | 0.0601 | 0.0568 | 0.0717 | 0.0571 | 0.0603 | 0.0612 |  |  |  |  |  |  |  |  |  |  |  |
| Q234H | 0.0567 | 0.0705 |  | 0.0866 | 0.0652 |  | 0.0666 | 0.135 | 0.14 | 0.0318 |  |  |  |  |  |  |  |
| M188Y | 0.0745 | 0.0619 | 0.0887 | 0.0696 | 0.079 | 0.0812 |  | 0.139 |  | 0.0564 | 0.0569 | 0.0848 | 0.115 | 0.0727 | 0.0621 |  |  |
| E108S | 0.0551 |  | 0.0627 | 0.06 |  | 0.0613 | 0.0522 |  |  | 0.0548 |  | 0.0456 | 0.0791 | 0.0559 |  | 0.0172 |  |
| R102D | 0.0899 | 0.0605 |  | 0.0497 | 0.0417 | 0.0714 | 0.0443 | 0.0551 |  |  | 0.0395 |  | 0.0585 |  |  | 0.0583 |  |
| P222Q | 0.0689 | 0.0573 |  | 0.0601 | 0.0686 | 0.0579 | 0.0743 | 0.114 |  | 0.0604 | 0.0428 | 0.0541 | 0.106 | 0.0779 | 0.0623 | 0.0693 | 0.0726 |
| Y34Q |  |  |  |  | 0.0534 |  |  |  |  |  |  |  |  | 0.0488 |  | 0.0342 | 0.052 |
| C131S |  | 0.056 |  | 0.0629 |  |  | 0.0566 |  |  |  |  |  |  | 0.0599 |  |  |  |
| I110M | 0.0657 | 0.0534 | 0.0655 | 0.0507 |  | 0.0499 | 0.0556 | 0.0742 |  |  |  | 0.0732 |  | 0.0648 | 0.0582 | 0.053 | 0.0637 |
| T44Y | 0.0531 | 0.0482 | 0.0434 | 0.0448 | 0.0405 |  | 0.0614 | 0.0521 | 0.0434 | 0.0457 | 0.0474 | 0.0395 | 0.0635 |  |  | 0.0336 |  |
| F92A | 0.0614 | 0.0651 |  |  | 0.0744 |  |  | 0.121 | 0.11 | 0.067 | 0.064 |  | 0.159 | 0.0769 |  | 0.076 |  |
| I85M | 0.0588 | 0.0605 | 0.0819 | 0.0633 | 0.0702 | 0.0672 | 0.0615 |  |  | 0.0534 | 0.0589 | 0.0654 |  |  | 0.0709 | 0.0564 |  |
| A207Y | 0.068 |  | 0.0809 | 0.0714 | 0.0806 |  |  |  |  |  |  | 0.0788 | 0.123 |  |  | 0.0143 |  |
| N175T | 0.0595 |  | 0.0609 |  | 0.0438 |  | 0.0578 | 0.0903 |  |  |  | 0.0635 |  | 0.0551 |  | 0.0708 |  |
| F140E | 0.0573 | 0.0672 | 0.0616 | 0.0533 | 0.0637 |  | 0.0583 | 0.0534 |  | 0.0631 | 0.0648 | 0.0537 | 0.0586 | 0.0602 | 0.0445 | 0.0624 |  |
| S130N | 0.083 |  |  | 0.0957 |  |  |  | 0.125 |  |  | 0.0747 |  | 0.137 | 0.15 |  | 0.0558 | 0.0525 |
| P40E |  | 0.0735 |  | 0.0718 |  | 0.0622 |  |  |  |  |  | 0.0869 |  | 0.0827 |  |  |  |
| D69R | 0.0704 | 0.0695 | 0.0737 |  | 0.0608 | 0.0481 | 0.0598 | 0.114 |  | 0.0662 |  | 0.0678 | 0.114 | 0.0687 | 0.0593 | 0.0656 | 0.0843 |

| Variant | area with substrate ENLYEQS | area with substrate ENLYHQS | area with substrate ENLYMQS | area with substrate ENLYNQS | area with substrate ENLYPQS | area with substrate ENLYQQS | area with substrate ENLYGQS | area with substrate ENLYIQS | area with substrate ENLYLQS | area with substrate ENLYRQS | area with substrate ENLYDQS | area with substrate ENLYSQS | area with substrate ENLYVQS | area with substrate ENLYWQS | area with substrate ENLYYQS | area with substrate ENLYKQS | area with substrate ENLYTQS |
| --- | --- | --- | --- | --- | --- | --- | --- | --- | --- | --- | --- | --- | --- | --- | --- | --- | --- |
| K68Q | 0.0746 | 0.0663 |  | 0.0624 | 0.0707 | 0.072 |  | 0.141 |  | 0.0628 | 0.0929 |  | 0.108 | 0.105 |  | 0.0595 |  |
| D137K |  | 0.0758 |  | 0.0804 | 0.0887 | 0.063 | 0.0628 | 0.137 |  |  | 0.0615 |  |  | 0.0723 | 0.0683 | 0.055 |  |
| M88I | 0.0637 | 0.0819 | 0.0931 | 0.0508 | 0.0732 | 0.0569 | 0.0609 | 0.103 |  |  | 0.0487 | 0.0614 | 0.109 | 0.0692 |  | 0.0567 | 0.0678 |
| M83I |  | 0.0557 |  |  | 0.0678 |  | 0.0586 |  | 0.0729 | 0.0636 | 0.0617 |  |  |  | 0.0554 | 0.0602 |  |
| P9M | 0.0706 | 0.0775 | 0.0864 | 0.0586 | 0.0891 |  | 0.0688 | 0.0902 | 0.0907 | 0.0674 | 0.0712 |  | 0.112 |  | 0.0742 | 0.0663 |  |
| S18I | 0.0747 | 0.0633 |  | 0.0588 |  | 0.0636 | 0.0613 | 0.123 | 0.0879 | 0.0598 | 0.0574 |  | 0.119 |  |  |  | 0.0768 |
| K98E |  |  |  |  |  | 0.0359 | 0.0609 |  |  | 0.0411 | 0.0577 |  |  | 0.129 | 0.0616 | 0.0618 |  |
| T119H | 0.0458 | 0.0633 |  | 0.067 |  |  |  | 0.153 | 0.0861 | 0.0624 |  |  | 0.155 |  |  | 0.0483 |  |
| L156I |  | 0.0577 | 0.0892 |  | 0.088 | 0.0668 |  | 0.143 | 0.0368 | 0.0985 | 0.0675 |  | 0.11 | 0.0903 | 0.0637 | 0.0746 |  |
| G8V |  |  |  | 0.0839 | 0.0838 | 0.0675 | 0.0573 |  |  | 0.0723 |  |  |  |  |  |  |  |
| G8R |  |  |  |  |  |  |  |  |  |  |  |  |  |  | 0.0664 |  | 0.111 |
| E25T | 0.0729 | 0.0815 |  |  | 0.0659 |  |  |  | 0.0846 |  | 0.0541 |  | 0.121 |  | 0.0654 |  |  |
| V113A | 0.0568 | 0.0763 |  | 0.0619 | 0.0574 |  | 0.0525 | 0.101 | 0.074 | 0.0637 | 0.0546 | 0.0689 |  | 0.0581 | 0.0811 | 0.0386 | 0.0597 |
| V113T | 0.0603 | 0.0624 | 0.0592 | 0.0853 |  |  | 0.0627 | 0.0676 |  | 0.0875 |  |  | 0.0862 |  |  | 0.0736 | 0.0636 |
| G37N | 0.0488 | 0.0613 | 0.056 |  |  | 0.0669 |  |  | 0.0468 | 0.0466 | 0.046 | 0.0553 |  | 0.0619 |  | 0.0674 |  |
| H76I | 0.0621 |  |  | 0.0824 | 0.0606 | 0.0839 |  |  |  | 0.0538 | 0.0471 | 0.059 |  |  | 0.0513 | 0.0578 |  |
| H76Q | 0.0629 |  |  | 0.0646 | 0.0752 |  | 0.128 |  |  | 0.0554 | 0.0579 | 0.0944 |  | 0.0686 |  |  |  |
| H76A | 0.0727 | 0.0602 |  | 0.0571 | 0.0799 | 0.0639 |  |  | 0.0688 | 0.0642 | 0.061 |  | 0.0775 | 0.0629 |  | 0.0622 | 0.0605 |
